Test results reported in ChEMBL document CHEMBL1201862, “PubChem BioAssay data set” (2004).
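Each compound was tested at five concentrations against cells in 96-well plates for 48 hours. GI50: concentration for 50% inhibition of growth.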 Calls of active or inactive are those of the source. No stated cut-off is given here; in the data, active = GI50 up to about 1.1 µM and inactive = higher.

Test system: NCI-H322M
Assay: NCI anticancer screen, dose series, 48 h

Row | Compound | GI50
1 | CC(C)/C(Cl)=N\OC(=O)NNc1ccccc1 | inactive: 98.4 µM
2 | C=CCN(c1cc(OCc2ccccc2)c2c(c(C)cn2S(=O)(=O)c2ccc([N+](=O)[O-])cc2)c1[N+](=O)[O-])S(C)(=O)=O | inactive: > 100 µM
3 | Oc1[nH]c(NCc2ccc(Cl)cc2)nc2ncnc1-2 | inactive: > 100 µM
4 | COc1ccccc1NC1=NCC(C)S1 (configuration not stated) | inactive: > 100 µM
5 | CC(C)n1c2c([n+](C)c1/C=C/c1ccccc1)C(=O)c1ccccc1C2=O | active: 0.405 µM
6 | Cc1ccc2nc(SCC(=O)N/N=C3\C(=O)Nc4ccccc43)n(-c3ccccc3)c(=O)c2c1 | inactive: 12.9 µM
7 | C[C@]12CCc3nonc3C1CC[C@@H]1C2CC[C@]2(C)NC(=O)CCC12 (some centres not stated) | inactive: > 100 µM
8 | O=C(N/N=C\c1ccc([N+](=O)[O-])cc1)Nc1ccccc1 | inactive: > 100 µM
9 | CC[C@@]1(O)C(=O)OCc2c1cc1n(c2=O)Cc2c-1nc1ccccc1c2/C=N\NC(=O)C1CCCN1 (some centres not stated) | inactive: 6.64 µM
10 | O=C1C(c2ccccc2)=C(O)c2cccc3cccc1c23 | inactive: > 100 µM
11 | COc1cccc(-c2ccc3c4c2O[C@H]2C(=O)CC[C@@]5(O)[C@@H](C3)N(CC3CC3)CC[C@]425)c1 | inactive: 16.3 µM
12 | Cc1nc(SCC(N)=O)c2sc(=S)n(-c3ccccc3)c2n1 | inactive: > 10 µM
13 | c1ccc2c(c1)[nH]c1c3ccccc3sc21 | inactive: > 100 µM
14 | COC(=O)c1cc2c(cc1CC1Cc3cc4c(cc3C1=O)CCC4)CCC2 (configuration not stated) | inactive: 92.9 µM
15 | O=C(CCN1CCCC1)Nc1ccc2sc3ccccc3c(=O)c2n1 | inactive: 18.1 µM
16 | c1ccc2c(c1)CCc1c(-c3ccncc3)n[nH]c1-2 | inactive: 39.4 µM
17 | O=C(Sc1c(-c2ccccc2)c(=O)n(-c2ccccc2)c(=S)n1-c1ccccc1)c1ccco1 | inactive: > 100 µM
18 | O=C(CSC(=S)N1CCCCC1)Nc1nc2c(s1)CCCC2 | inactive: 79.3 µM
19 | N/N=C1\CCCc2c1no[n+]2[O-] | inactive: > 100 µM
20 | C[C@H](C1CC2(C)OC2(C)C(=O)O1)[C@H]1CC[C@H]2[C@@H]3[C@@H]4O[C@@H]4[C@@]4(O)CC=CC(=O)[C@]4(C)[C@H]3CC[C@]12C (some centres not stated) | inactive: > 50 µM
21 | O=C(CSc1nc2ccc(I)cc2c(=O)n1Cc1ccccc1)NNC(=S)Nc1ccccc1 | inactive: 16.4 µM
22 | O=C(O)c1ccccn1 [2-PICOLINIC ACID] | inactive: > 100 µM
23 | COc1cc2c3c(c1OCc1ccccc1)NCCC3NCC2 (configuration not stated) | inactive: > 100 µM

Row | Compound | GI50
24 | CCOC(=O)/C=C1\Oc2ccccc2C1(C)O (configuration not stated) | inactive: > 100 µM
25 | CCn1c(=O)c2c3ccc(O)cc3[nH]c2c2ccc(O)cc21 | inactive: 73.1 µM
26 | CCCCCCCCCC[C@@H](O)[C@@H]1CC[C@H]([C@H]2CC[C@@H]([C@@H](O)CCCCCCCCCC[C@H]3CC(CC(C)=O)C(=O)O3)O2)O1 (some centres not stated) | inactive: 17.4 µM
27 | CC(=O)N1CC(C)(C)c2c1cc(C)c(O)c2C | inactive: > 100 µM
28 | c1ccc2c(c1)SP1Sc3ccccc3P21 (configuration not stated) | inactive: > 100 µM
29 | O=c1oc2ccccc2cc1-c1cn2c(n1)sc1ccccc12 | inactive: 2.54 µM
30 | COC(=O)C12CCC(C(=O)OC)(Cc3c(c4ccccc4n3S(=O)(=O)c3ccccc3)C1)C2=O (configuration not stated) | inactive: > 91.4 µM
31 | CCOC(=O)Cc1nnc2n(-c3ccccc3)c(=O)c3ccccc3n12 | inactive: > 100 µM
32 | Cc1[nH]n(C2=NCCN2)c(=O)c1Cc1ccccc1 | inactive: > 100 µM
33 | N#C/C(N)=C(\C#N)NC(=O)C(=O)N/C(C#N)=C(\N)C#N | inactive: > 100 µM
34 | O=C(CNC(c1ccccc1)(c1ccccc1)c1ccccc1)NC1CCCCC1NC(=O)CNC(c1ccccc1)(c1ccccc1)c1ccccc1 (configuration not stated) | inactive: > 100 µM
35 | CC1(C)OCC(C2OC3OC(C)(C)OC3C2c2ccccc2)O1 (configuration not stated) | inactive: > 100 µM
36 | N#C/C(=C\n1ccc(=O)[nH]c1=S)C(N)=O | inactive: > 100 µM
37 | Cc1cc2c(=O)c(C)n[nH]c2c(C#N)c1C | inactive: > 100 µM
38 | CN(CCCNC(=O)c1nn(-c2ccccc2)c2c1Cc1ccccc1-2)CCCNC(=O)c1nn(-c2ccccc2)c2c1Cc1ccccc1-2 | inactive: 1.77 µM
39 | NC1=NC(=O)C(CC(=O)Nc2ccc(Cl)cc2Cl)S1 (configuration not stated) | inactive: > 100 µM
40 | N#Cc1cc([N+](=O)[O-])ccc1NC(=O)C(=O)C(C(=O)/C=C/c1ccccc1)C1OC(=O)c2ccccc21 (configuration not stated) | inactive: > 100 µM
41 | COc1c(C(C)(C)C)cc(CC2C(=O)C=CC2=O)cc1C(C)(C)C | inactive: 17.3 µM
42 | CC1(C)C(O)C[C@]23CCC[C@](C)(C[C@@H](O)C12)C3 (some centres not stated) | inactive: > 100 µM
43 | N#C/C(=C(\O)C(=O)O)c1ccc(-c2cccc3ccccc23)cc1 | inactive: > 100 µM
44 | C=C(C)[C@@]1(O)CCCC[C@@H]1CC(Sc1ccccc1)Sc1ccccc1 | inactive: 16.6 µM
45 | CCOC(=O)[C@H]1Nc2ccc(OC)cc2C2c3ccccc3CC21 (some centres not stated) | inactive: > 100 µM
46 | CNc1ccc(C(=O)CC(O)CCC(C)C2OC(=O)CC(O)CC(=O)CC(O)CC(O)CC(O)CC(O)CC3(O)CC(O)C(C(=O)N4CCOCC4)C(CC(OC4OC(C)C(O)C(N)C4O)\C=C/C=C\C=C/C=C/C=C/C=C\C=C/C2C)O3)cc1 (configuration not stated) | active: 0.259 µM

Row | Compound | GI50
47 | CC1(C)CCC2=C(O1)/C(=N\Nc1ccc(F)cc1)c1ccccc1C2=O | inactive: 33.3 µM
48 | O=C(O)Cc1cc(=O)oc2cc(O)c(Cl)cc12 | inactive: > 100 µM
49 | O=c1[nH]cnc2[nH]nnc12 | inactive: 57.4 µM
50 | O=c1[nH]c2cccc([N+](=O)[O-])c2c(=O)n1-c1ccc(Cl)cc1 | inactive: 12.6 µM
51 | C/C(=N\[N+](C)(C)C)c1ccc(C)c(C)c1 | inactive: > 100 µM
52 | COc1cccc2c1C1=CC(=O)CCC1C(C)(C)O2 (configuration not stated) | inactive: > 100 µM
53 | C[C@H](NS(=O)(=O)c1ccc(NC(=O)c2ccccc2)cc1)C(=O)O | inactive: > 100 µM
54 | O=c1cc(O)ccn1C1C=C(CO)C(O)C1O (configuration not stated) | inactive: > 625 µM
55 | Cn1c(=O)n2n(c1=O)[C@@H](c1ccccc1)[C@H]2c1ccccc1 | inactive: > 100 µM
56 | COc1ccc2c(c1OC)C(=O)N1C2=Cc2c(cc3c(c2OC)OCO3)CC1N(C)C (configuration not stated) | inactive: > 100 µM
57 | C[C@H](CCC(=O)O)[C@H]1CC[C@H]2[C@@H]3[C@H](O)[C@H](O)[C@@H]4C[C@H](O)CC[C@]4(C)[C@H]3CC[C@]12C [HYOCHOLIC ACID] | inactive: > 100 µM
58 | CC(C)CCCC(C)[C@H]1CC[C@H]2N/C(=N/Cc3ccccc3)CCC[C@]12C (some centres not stated) | inactive: 2.24 µM
59 | N#CC(C#N)=C1CCCS(=O)(=O)c2ccccc21 | inactive: > 100 µM
60 | Cn1c2ccccc2c2c(-c3ccccc3)[n+]3ccccc3nc21 | inactive: 66.5 µM
61 | O=Cc1ccc(-c2cc(C=O)c(-c3cccs3)[nH]2)s1 | inactive: 51.4 µM
62 | Cc1cc2c(ccc[n+]2[O-])[n+]([O-])c1 | inactive: > 100 µM
63 | O=c1[nH]c(=O)n2n1C1C=CC2CC1 | inactive: > 100 µM
64 | Cn1c(=S)[nH]c(N)c(Cc2ccccc2)c1=O | inactive: > 100 µM
65 | Nc1nc(SCCNC(=O)CCc2ccc(O)c(I)c2)nc2c1ncn2C1OC(CO)C(O)C1O (configuration not stated) | inactive: > 100 µM
66 | Cc1nc(/C(=N\n2cnnc2)Nc2ccc(Br)cc2)no1 | inactive: > 100 µM
67 | CC(C)=CCC[C@H](C)[C@H]1CC[C@@H](C)c2cc(O)c(C)cc21 | inactive: 17.4 µM
68 | Cc1ccc2c(=O)cc(-c3ccc(-c4ccccc4)s3)[nH]c2n1 | inactive: > 53 µM
69 | COc1ccc(N2C(=O)c3cccnc3S2(=O)=O)cc1 | inactive: > 100 µM

Row | Compound | GI50
70 | O[C@@]1(c2cccs2)c2cccc(Cl)c2[C@](O)(c2cccs2)c2cccc(Cl)c21 | inactive: 24.4 µM
71 | C=CCCON(C(=O)OC(C)(C)C)c1ccccc1 | inactive: 52.2 µM
72 | CC1CCC2(CC1)N=C1CCC(C)CC1C1(CCC(C)CC1)N2 (configuration not stated) | inactive: > 100 µM
73 | Oc1nc(S)nc(SCc2c(Cl)c(Cl)c(Cl)c(Cl)c2Cl)n1 | inactive: > 100 µM
74 | S=C(N1CCN(c2ccc(Cl)c(Cl)c2)CC1)N1CCN(c2ccc(Cl)c(Cl)c2)CC1 | inactive: 13 µM
75 | COc1cc(C)cc2c1C(=O)C(Br)=CC2=O | inactive: 17.7 µM
76 | C=C(C)C1CC=C(C)C(O)([C@@]2(O)C[C@H](C(=C)C)CC=C2C)C1 (some centres not stated) | inactive: 25.9 µM
77 | Cc1cc(C)nc(Sc2c([N+](=O)[O-])ncn2C)n1 | inactive: > 100 µM
78 | N=C(N)CCNC(=O)C1CCC(N)=N1 (configuration not stated) | inactive: 8.22 µM
79 | COC(=O)c1ccc(/C=C/c2cc(O)ccc2O)cc1 | inactive: 8.09 µM
80 | COC(=O)[C@H]1C2CC[C@@H]3C45C[C@@H](c6ccoc6)O[C@@H]4O[C@@H](O2)C31CCC5C (some centres not stated) | inactive: > 100 µM
81 | CCc1c(OC(C)=O)c2c(NC3OC(COC(C)=O)C(OC(C)=O)C(OC(C)=O)C3OC(C)=O)nc(SC)nc2oc1=O (configuration not stated) | inactive: > 100 µM
82 | CN(/N=C/c1ccccn1)C1=NCCCCN1 | inactive: > 100 µM
83 | COc1ccc(N2C(=O)/C(=C\c3cccc(Oc4ccccc4)c3)S(=O)(=O)C2c2ccccc2)cc1 (configuration not stated) | inactive: 40 µM
84 | COc1cc2c(cc1OC)C(=O)/C(=C/c1ccc(N(C)C)cc1)CC2 | inactive: > 10 µM
85 | COC(=O)CCC(=O)Nc1cc(Cl)ccc1Cl | inactive: > 100 µM
86 | C1=CC=C2NCCSCC/N=C3/C=CC=CC=C3NCCSCC/N=C\2C=C1 | inactive: > 100 µM
87 | Cc1cccc(/C=N/NC(=S)NC(C)(C)C)n1 | inactive: > 100 µM
88 | Cc1cn([C@@H]2C[C@H](CO)[C@@H]2O)c(=O)[nH]c1=O | inactive: > 100 µM
89 | CC(C)C(/C=C/c1ccc(Cl)c(Cl)c1)=N\NC(=O)N/N=C(/C=C/c1ccc(Cl)c(Cl)c1)C(C)C | inactive: > 100 µM
90 | CC(C)(C)c1cc(/C=C(\C#N)C2=NCCO2)cc(C(C)(C)C)c1O | inactive: 2.81 µM
91 | C=C1C(=O)O[C@@H]2/C=C(C)/C=C\[C@@H]3O[C@@]3(C)C[C@@H](O)C12 (some centres not stated) | inactive: 33.9 µM
92 | O=C1C(NCCc2ccc(O)c(O)c2)=CC(=O)c2ncccc21 | inactive: 16.4 µM
